In assay [1] the target is T1, mammalian STE20-like protein kinase 1 (MST1), endogenous in PC-9 cells (human (endogenous in PC-9)) (UniProt Q13043).
T1 sequence: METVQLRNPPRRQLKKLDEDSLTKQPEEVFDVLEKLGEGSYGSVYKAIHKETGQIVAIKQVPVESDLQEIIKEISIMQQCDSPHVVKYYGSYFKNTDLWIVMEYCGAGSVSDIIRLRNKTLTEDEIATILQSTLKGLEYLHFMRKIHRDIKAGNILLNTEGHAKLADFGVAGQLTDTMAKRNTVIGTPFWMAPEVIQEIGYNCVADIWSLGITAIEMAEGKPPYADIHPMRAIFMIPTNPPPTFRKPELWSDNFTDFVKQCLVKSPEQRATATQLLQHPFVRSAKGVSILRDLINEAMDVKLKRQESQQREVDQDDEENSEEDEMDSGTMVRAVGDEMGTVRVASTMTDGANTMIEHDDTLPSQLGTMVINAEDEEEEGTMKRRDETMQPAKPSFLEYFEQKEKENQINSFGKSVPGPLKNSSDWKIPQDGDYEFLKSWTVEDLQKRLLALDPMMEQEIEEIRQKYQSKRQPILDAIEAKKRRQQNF
In words: co-IP; endogenous proteins, PC-9 lysate; immunoprecipitation with IgG control, MST1 or MST2 antibodies; immunoblot for MISP. For orientation: Immunoblotting shows a protein as a band on a membrane.

Assay [2] addresses T2, mammalian STE20-like protein kinase 2 (MST2), endogenous in PC-9 cells (human (endogenous in PC-9)) (UniProt Q13188).
T2 sequence: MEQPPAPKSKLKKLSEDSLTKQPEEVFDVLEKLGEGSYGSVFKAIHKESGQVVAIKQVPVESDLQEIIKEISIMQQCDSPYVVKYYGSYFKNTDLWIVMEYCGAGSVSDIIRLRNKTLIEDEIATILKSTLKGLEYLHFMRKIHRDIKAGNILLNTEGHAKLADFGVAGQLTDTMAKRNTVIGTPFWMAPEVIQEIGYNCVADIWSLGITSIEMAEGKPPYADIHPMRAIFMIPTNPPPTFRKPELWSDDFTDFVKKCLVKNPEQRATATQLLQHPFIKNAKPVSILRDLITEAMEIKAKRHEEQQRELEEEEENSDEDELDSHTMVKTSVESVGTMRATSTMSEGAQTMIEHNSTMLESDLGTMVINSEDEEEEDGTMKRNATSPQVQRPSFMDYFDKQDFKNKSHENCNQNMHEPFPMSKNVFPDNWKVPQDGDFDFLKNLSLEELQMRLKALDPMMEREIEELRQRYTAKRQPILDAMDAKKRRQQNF
The description is as above.

The target in assay [3] is T3, HA-MST1 expressed in 293T cells (UniProt Q13043).
T3 sequence: T1 sequence
In words: co-IP; 293T cells transfected with MISP-Flag (wild type or mutant) and HA-MST1 or MST2 for 24 h, lysed, immunoprecipitation with tag antibodies, immunoblot.

Assay [4] deals with T4, MST2 expressed in 293T cells (UniProt Q13188).
T4 sequence: T2 sequence
The assay is described as above.

Experimental findings from paper PMC12021056, “MISP Suppresses Ferroptosis via MST1/2 Kinases to Facilitate YAP Activation in Non‐Small Cell Lung Cancer” (Advanced Science, 2025) are described below.

Positions count from the first letter of the chain named. Names and notes keep the numbering of the source. Results are given in words; binding and its absence hold for the method and conditions named. In cells and extracts the contact can be indirect. Some binding calls cover weakened binding; strength is not graded here. For part of these data: Where a sequence is shown, tags or fusion partners need not be part of it.

B1: Mitotic Spindle Positioning (MISP), endogenous in PC-9 cells (protein, UniProt Q8IVT2 1-679)
chain: MDRVTRYPILGIPQAHRGTGLVLDGDTSYTYHLVCMGPEASGWGQDEPQTWPTDHRAQQGVQRQGVSYSVHAYTGQPSPRGLHSENREDEGWQVYRLGARDAHQGRPTWALRPEDGEDKEMKTYRLDAGDADPRRLCDLERERWAVIQGQAVRKSSTVATLQGTPDHGDPRTPGPPRSTPLEENVVDREQIDFLAARQQFLSLEQANKGAPHSSPARGTPAGTTPGASQAPKAFNKPHLANGHVVPIKPQVKGVVREENKVRAVPTWASVQVVDDPGSLASVESPGTPKETPIEREIRLAQEREADLREQRGLRQATDHQELVEIPTRPLLTKLSLITAPRRERGRPSLYVQRDIVQETQREEDHRREGLHVGRASTPDWVSEGPQPGLRRALSSDSILSPAPDARAADPAPEVRKVNRIPPDAYQPYLSPGTPQLEFSAFGAFGKPSSLSTAEAKAATSPKATMSPRHLSESSGKPLSTKQEASKPPRGCPQANRGVVRWEYFRLRPLRFRAPDEPQQAQVPHVWGWEVAGAPALRLQKSQSSDLLERERESVLRREQEVAEERRNALFPEVFSPTPDENSDQNSRSSSQASGITGSYSVSESPFFSPIHLHSNVAWTVEDPVDSAPPGQRKKEQWYAGINPSDGINSEVLEAIRVTRHKNAMAERWESRIYASEEDD
In the case of B1, the binding result in assay [1] and in assay [2] was “binds” in each case.

B2: MISP R2A mutant (R390/391A) (protein, UniProt Q8IVT2 1-679)
chain: B1 chain with R390A, R391A
Take B2: the binding entry in assay [3] and in assay [4] was “no binding” in each case.

B3: MISP-Flag expressed in 293T cells (protein, UniProt Q8IVT2 1-679)
chain: B1 chain
Consider B3, for which the binding entry in assay [3] and in assay [4] was “binds” in each case.
